In PubChem BioAssay AID1347073 (National Center for Advancing Translational Sciences (NCATS), 2019):
The campaign covered roughly 45,000 compounds. About 200 (0.44%) were called active. Another 7% or so got no clear call; they are omitted. Calls follow the shape of the dose curve; as a rule, active = well fitted activation curve with a large enough effect; inconclusive = small, poorly fitted or top-dose-only effect; inactive = no such curve, though single readings can be large or run the other way. The list shows a part of the results.

Assay: qHTS of TDP-43 Inhibitors: NCGC Sytravon Library Screen; also: 0% is about no effect; nearly all actives have a fitted effect of over 55% in size
Conditions: yeast TDP-43 toxicity rescue, BacTiter-Glo growth, 24 h; series mostly up to 46.1 µM; growth rescue (activation): at the top concentration
In short: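 TDP-43-expressing yeast, pregrown in raffinose, seeded at OD600 0.02 in galactose medium with compound for 24 hr at 30 deg C. Growth read by BacTiter-Glo luminescence, so rescue of toxicity appears as activation.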

Row | SMILES | growth rescue (activation)
1 | COC(=O)c1cc(C(=O)OCC(=O)N2CCCCC2)cc([N+](=O)[O-])c1 | inactive: 3.65%
2 | CC1(C)Cc2ccccc2C2=C(C(=O)N3CCCCCC3)C(=O)C(=O)N21 | inactive: -1.66%
3 | COc1ccccc1N1CCN(C2CCN(S(=O)(=O)c3ccc(C)cc3)CC2)CC1 | inactive: -26.6%
4 | O=C(Nn1cnnc1)c1cc(-c2ccccn2)nc2ccccc12 | inactive: -2.7%
5 | O=C(NC1CCN(C(=O)Nc2ccccc2Cl)CC1)c1cccc(F)c1 | inactive: 16.3%
6 | COc1ccc(NC(=O)CCCCCn2nnc3ccccc3c2=O)cc1 | inactive: -33.8%
7 | Cc1ccc(S(=O)(=O)CCC(=O)Nc2ccccc2C)cc1 | inactive: 16%
8 | O=c1oc2ccccc2n1Cc1ccccc1 | inactive: 9.09%
9 | COc1ccc(CC(=O)Nc2c3c(nn2-c2cccc(C)c2C)CS(=O)C3)cc1OC (stereo not drawn) | inactive: 31.2%
10 | COc1ccc2nc(Cl)c(C#N)cc2c1 | inactive: 25.1%
11 | FC(F)(F)c1cccc(-c2nn[nH]n2)c1 | inactive: -2.1%
12 | Oc1ccc(Br)cc1/C=N/Nc1nc(N2CCCCC2)nc(N2CCOCC2)n1 | inactive: -1.21%
13 | Cc1ccc(C)c(C(=O)OCC(=O)N(C)c2ccccc2)c1 | inactive: 28.7%
14 | COc1cc2c(cc1NC(=O)c1cc(-c3ccccn3)nc3ccccc13)oc1ccccc12 | inactive: 1.34%
15 | CC1CN(S(=O)(=O)c2cccc(C(=O)NCCc3ccc(S(N)(=O)=O)cc3)c2)CC(C)O1 (stereo not drawn) | inactive: 0.0184%
16 | COCCNC(=O)C1(C)CCCN(C(=O)c2cccnc2SC)C1 (stereo not drawn) | inactive: -0.396%
17 | O=C(CCc1ccccc1)N1N=C(c2ccncc2)CC1(O)C(F)(F)F (stereo not drawn) | inactive: -7.22%
18 | CN(C)S(=O)(=O)N1CCN(c2ccc([N+](=O)[O-])c(N3CCOCC3)c2)CC1 | inactive: 7.94%
19 | Cc1nc2ccc(N3C(=O)CCC3=O)cc2[nH]1 | inactive: 10.4%
20 | CC(C)=CCn1c2ccc(NC(=O)NCc3ccc(F)cc3)cc2c(=O)n1C | inactive: 12.4%
21 | Cc1ccc(NC(=O)CSc2nnc(C)n2CC2CCCO2)cc1 (stereo not drawn) | inactive: -10.8%
22 | CCOC(=O)C1CCN(Cc2cc(=O)oc3cc(C)c(Cl)cc23)CC1 | inactive: -1.83%

Row | SMILES | growth rescue (activation)
23 | CC(C)C(C)NC(=O)COc1ccc(S(=O)(=O)N2CCOCC2)cc1[N+](=O)[O-] (stereo not drawn) | inactive: -4.84%
24 | CN(C)S(=O)(=O)c1cccc(N=C2SCCN2Cc2ccccc2)c1 | inactive: 29.4%
25 | O=C(CN1CCCC1)Nc1nc(-c2ccc3c(c2)CCN3C(=O)c2ccccc2F)cs1 | inactive: -25.3%
26 | COC(=O)COc1ccc2c(=O)c(-c3ccccc3)coc2c1 | inactive: 9.13%
27 | CCOC(=O)CC(NS(=O)(=O)Cc1ccccc1)c1ccc(C)cc1 (stereo not drawn) | inactive: 8.07%
28 | Cn1cc(C(=O)C(=O)N2CCCCC2)c2ccccc21 | inactive: 10.3%
29 | CCCOc1ccc(-c2c(C(=O)N/N=C/c3ccc(C)cc3)nnn2-c2nonc2N)cc1 | inactive: 1.93%
30 | O=C(NC(Cc1ccccc1)c1nc2ccccc2[nH]1)c1cccc([N+](=O)[O-])c1 (stereo not drawn) | inactive: 8.69%
31 | COc1ccc(CN(C)CC(O)COC(c2ccccc2)c2ccccc2)c(OC)c1OC (stereo not drawn) | inactive: 4.86%
32 | COc1ccc(S(=O)(=O)NCC2CCCO2)cc1NC(=O)c1ccccc1F (stereo not drawn) | inactive: -8.89%
33 | O=C(CC12CC3CC(CC(C3)C1)C2)NC(=S)NCc1ccccc1 | inactive: 20.2%
34 | COc1ccc(Cl)cc1Nc1nc(C)nc2c1nnn2Cc1ccccc1 | inactive: 8.31%
35 | O=C(CSc1ccc(Cl)cc1)Nc1ccccc1Oc1ccccc1 | inactive: -36.7%
36 | COc1ccc(NC(=O)c2cc(C3CCCCN3C(=O)C3CC3)on2)c(C)c1 (stereo not drawn) | inactive: -0.593%
37 | COC(=O)c1cc([N+](=O)[O-])c(-n2ccnc2)c([N+](=O)[O-])c1 | inactive: 21.4%
38 | COc1ccc(C2(C#N)CCC(=O)N2c2ccccc2)cc1 (stereo not drawn) | inactive: 7.63%
39 | CC(OC(=O)Cn1cc(C(F)(F)F)ccc1=O)C(=O)N(C)c1ccccc1 (stereo not drawn) | inactive: 13.9%
40 | CC(C)OC(=O)c1ccc(NC(=S)NC(=O)c2cncc(Br)c2)cc1 | inactive: 2.27%
41 | O=C(Nc1ccc(Cl)c([N+](=O)[O-])c1)c1ccncc1 | inactive: 4.89%
42 | Cn1c(Nc2ccc(Cl)cc2)cc(=O)n(C)c1=O | inactive: 4.2%
43 | Cc1ccc2nc(NCc3ccccc3)c(C=NCc3cccnc3)c(=O)n2c1 | inactive: -1.72%
44 | CCSc1nc2ccccc2n1C(=O)c1ccc(S(=O)(=O)N2CCCCCC2)cc1 | inactive: 20.6%

Row | SMILES | growth rescue (activation)
45 | Cc1ncc(CN2CCCC(C(=O)Nc3ccc(-c4cccc(F)c4)cc3)C2)s1 (stereo not drawn) | inactive: -6.7%
46 | O=C(CS(=O)(=O)Cc1ccccc1)N1CCc2ccccc2C1 | inactive: 19.3%
47 | Cc1cc(=O)oc2cc(NC(=O)c3cccc(S(=O)(=O)N(C)C)c3)ccc12 | inactive: -11.7%
48 | Fc1ccc(-c2csc(=S)[nH]2)cc1 | inactive: 21%
49 | O=C(Nc1ccccc1N1CCCC1)c1cccc(Cl)c1Cl | inactive: -1.8%
50 | O=C(Nc1cccc(OC(F)(F)F)c1)C1Cc2c(-c3ccccc3Oc3ccccc3)ccnc2O1 (stereo not drawn) | inactive: 3.93%
51 | Cc1cccc(Oc2nc3ccccn3c(=O)c2/C=C(\C#N)C(=O)NC2CCS(=O)(=O)C2)c1 (stereo not drawn) | inactive: 6.39%
52 | COc1ccc(C2=CSC3=NCCN23)cc1Cl | inactive: 12.7%
53 | C=CCn1c(O)c(N=Nc2ccccc2C)c2ccccc21 | inactive: 4.7%
54 | CCc1nc2ccc(C(=O)N(CC)CCN(C)C)cn2c1N(C)CCCc1ccccc1 | inactive: 7.7%
55 | C[C@]12CCC3C(CC[C@H]4CC(O)CC[C@]34C)C1CC/C2=N/O (stereo partly drawn) | inactive: -20.4%
56 | CC(C)N1CCC(N2CCN(C3CCCCC3)CC2CCO)CC1 (stereo not drawn) | inactive: 0.591%
57 | Cc1nn(C)c(Cl)c1C(N)=O | inactive: 2.93%
58 | COc1ccccc1NC(=O)NC1(C(=O)N2CCN(C)CC2)CCCCC1 | inactive: 4.85%
59 | O=C(CN1N=C(c2ccccc2)CCC1=O)NCCCN1CCc2ccccc2C1 | inactive: 1.99%
60 | COCCNC(=O)C1(C)CCN(C(=O)c2sc(-c3ccccc3)nc2C)C1 (stereo not drawn) | inactive: -0.772%
61 | Cc1cc(CNC(=O)COc2ccc(C)c(C)c2)c2ccccc2n1 | inactive: 17.2%
62 | C=C(C)Cn1c(CCNC(=O)c2ccco2)nc2ccccc21 | inactive: -23.7%
63 | COc1ccc(Cc2nc3c4cnn(-c5ccccc5F)c4ncn3n2)cc1 | inactive: 18.2%
64 | COc1cc(C)nc(NC(=S)N(C)C(=O)c2ccccc2)n1 | inactive: -0.257%
65 | Cc1ccccc1C1C(C#N)=C2N=C(N)c3ccccc3N2C2=C1C(=O)CCC2 (stereo not drawn) | inactive: 5.44%
66 | CCOC(=O)c1[nH]c2cc3c(cc2c1NC(=O)CN1CC(C)CC(C)C1)OCO3 (stereo not drawn) | inactive: -2.42%

Row | SMILES | growth rescue (activation)
67 | CN(CCO)c1ccc(-c2n[nH]c(=O)c3ccccc23)cc1[N+](=O)[O-] | inactive: -33.7%
68 | Cc1nc(NC(=O)CSc2nnc(-c3ccc4c(c3)OCO4)o2)c(Cl)cc1Cl | inactive: 25.4%
69 | COc1cc(Cc2ccc(N)c(OC)c2)ccc1N | inactive: -5.12%
70 | CCn1c2ccccc2c2nnc(SCN3C(=O)c4ccccc4C3=O)nc21 | inactive: 4.05%
71 | CNC(=O)NC(=O)CSc1nc2sccc2c(=O)n1-c1ccccc1 | inactive: -15.4%
72 | COc1ccc(C(=O)NC2CCN(CC(=O)NCc3ccccc3F)CC2)cc1 | inactive: -13%
73 | CSCCC(NC(=O)c1ccccc1Br)C(=O)N1CCC(C)CC1 (stereo not drawn) | inactive: 3.13%
74 | O=C(CN(C(=O)CCC(=O)Nc1nccs1)c1ccccc1F)NCCc1ccccc1 | inactive: 0.767%
75 | CCOC(=O)CN1C(=O)NC2(CCCc3ccccc32)C1=O (stereo not drawn) | inactive: 6.54%
76 | NC(=O)N/N=C/c1coc2ccc3ccccc3c2c1=O | inactive: -27.7%
77 | COc1ccc(S(=O)(=O)N2CCC(C(=O)NCc3ccccc3)CC2)cc1OC | inactive: 10.6%
78 | CC(C)C(c1nnnn1C1CCCC1)N1CCC(C(N)=O)CC1 (stereo not drawn) | inactive: -5.94%
79 | COc1cccc(CNc2nc(NCC3CC3)nc3ccsc23)c1OC | inactive: 8.65%
80 | CCCOc1ccc(-c2nc3c(c(=O)[nH]c(=O)n3Cc3ccccc3)n2CCO)cc1OCC | inactive: 8.99%
81 | COc1ccc(Cn2c(C(C)C)nc3sc4ccccc4c(=O)c3c2=O)cc1 | inactive: 18.8%
82 | CC(C)(C)C(=O)NNC(=O)C1CC1(c1ccccc1)c1ccccc1 (stereo not drawn) | inactive: -0.532%
83 | Cc1ccc(C(=O)OCc2cc(=O)n3ccsc3n2)s1 | inactive: 18.1%
84 | Cc1ccc(NC(=O)C2CC(=O)N(Cc3ccccc3)C2)cc1S(=O)(=O)N1CCCCCC1 (stereo not drawn) | inactive: 15.3%
85 | COc1cc(/C=C/C(=O)O)cc(S(=O)(=O)Nc2cccc(SC)c2)c1OC | inactive: -3.06%
86 | C/C(=N\NC(=O)c1ccc(Cl)cc1)c1ccccn1 | inactive: -22.5%
87 | CCCSc1ncc(Cl)c(C(=O)Nc2c(C(=O)Nc3ccc(OC)cc3)oc3ccccc23)n1 | inactive: 2.74%
88 | Cc1ccccc1NC(=O)COC(=O)[C@@H]1CCCN1C(=O)c1cccs1 | inactive: 5.71%

Row | SMILES | growth rescue (activation)
89 | COc1cc(CNc2nc(C)c([N+](=O)[O-])c(C)c2C#N)cc(OC)c1OC | inactive: 2.46%
90 | CC1C(=O)NN=C1C(=O)N/N=C\C(Br)=C\c1ccccc1 (stereo not drawn) | inactive: 8.91%
91 | CCc1nc2c(OC)cccn2c1N(C)C(=O)c1ccccc1F | inactive: 8.39%
92 | COc1ccc(NC(=O)COC(=O)CN2C(=O)c3ccccc3C2=O)cc1 | inactive: -2.58%
93 | Cc1ccc(N(C(=O)c2csnn2)C(C(=O)NC(C)(C)C)c2cccnc2)cc1 (stereo not drawn) | inactive: 1.8%
94 | COc1cc2c(cc1OC)/C(=C/C(=O)c1ccc(OC)c([N+](=O)[O-])c1)NCC2 | inactive: -16.3%
95 | CCCCCC1CC(/C(C)=N/NC(N)=O)OC1=O (stereo not drawn) | inactive: 16.1%
96 | Cc1cc(C)n2c(SCC(C)C)nnc2n1 | inactive: 19%
97 | N=c1c(S(=O)(=O)c2ccccc2)cc2c(=O)n3ccccc3nc2n1C1CCCC1 | inactive: -8.48%
98 | COc1ccc(CCNS(=O)(=O)c2ccc(-n3cnnn3)cc2)cc1OC | inactive: -4.67%
99 | Cc1ccc(C(=O)/C=C/N(C)C)o1 | inactive: 26.3%
100 | CCOc1ccc(CN(CCO)CCO)cc1C(=O)OC | inactive: 13.4%
101 | Cc1cccc(NNC(=S)Nc2c(C)cccc2C)c1 | inactive: -8.11%
102 | CC1CCc2sc(NC(=O)C3CC(Cl)=CCC3C(=O)O)c(C#N)c2C1 (stereo not drawn) | inactive: 9.67%
103 | Cc1cc(NC(=O)c2ccc([N+](=O)[O-])cc2)n(CCC#N)n1 | inactive: 8.82%
104 | C=CCn1c(=O)c2ccccc2n2c(SC(C)C(N)=O)nnc12 (stereo not drawn) | inactive: 7.37%
105 | O=C(Nc1ccc(F)c(Cl)c1)N1CCC2(CC1)Oc1ccccc1C(=O)N2Cc1ccccc1F | inactive: 2.31%
106 | COc1ccc(S(=O)(=O)N2CCCN(C)CC2)cc1 | inactive: 1.25%
107 | CCN(Cc1ccccc1)C(=O)CN1C(=O)c2ccccc2C1=O | inactive: -10.4%
108 | O=C(O)CCCn1cc(NC(=O)COc2ccccc2[N+](=O)[O-])cn1 | inactive: -19.2%
